# This is one part of the list. Repeats are few or missing, and single values can be far off.
# Legend:
# Experiment in all cases: cell count relative to DMSO control; melanoma cells; higher = more viable cells
# Conditions in all cases: library dose: standard library concentration; 72 h
# G361 = system: G361
# IPC-298 = system: IPC-298
# IST-MEL1 = system: IST-MEL1
# LB2518-MEL = system: LB2518-MEL
# LOXIMVI = system: LOXIMVI
# MEL-HO = system: MEL-HO
# MZ2-MEL = system: MZ2-MEL
# MeWo = system: MeWo
# RPMI7951 = system: RPMI7951
# RVH-421 = system: RVH-421
# SkMel28 = system: SkMel28
# SkMel2 = system: SkMel2
# SkMel30 = system: SkMel30
# SkMel5 = system: SkMel5
# UACC257 = system: UACC257
# UACC62 = system: UACC62
# WM115 = system: WM115
# WM1716 = system: WM1716
# WM1745 = system: WM1745
# WM3526 = system: WM3526
# 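Note: cells treated in 1,536-well plates, then fixed and DAPI-stained, with nuclei counted from automated high-throughput microscope images.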
smiles,measurement,setting,value
"N#CC[C@H](C1CCCC1)n1cc(-c2ncnc3[nH]ccc23)cn1 [ruxolitinib] + Cc1cc(N2CCOCC2)cc2[nH]c(-c3c(NC[C@@H](O)c4cccc(Cl)c4)cc[nH]c3=O)nc12 [BMS536924] (first compound 5 µM, partner dose 1 µM)",cell count,G361,86.4%
same,cell count,IPC-298,107%
same,cell count,IST-MEL1,120%
same,cell count,LB2518-MEL,117%
same,cell count,LOXIMVI,96%
same,cell count,MEL-HO,81.7%
same,cell count,MZ2-MEL,118%
same,cell count,MeWo,73.2%
same,cell count,RPMI7951,84.3%
same,cell count,RVH-421,81.7%
same,cell count,SkMel28,108%
same,cell count,SkMel2,91.8%
same,cell count,SkMel30,86.7%
same,cell count,SkMel5,67.5%
same,cell count,UACC257,91.3%
same,cell count,UACC62,102%
same,cell count,WM115,93.4%
same,cell count,WM1716,78.5%
same,cell count,WM1745,31.8%
same,cell count,WM3526,77.9%
"Cc1cc(Nc2cc(N3CCN(C)CC3)nc(Sc3ccc(NC(=O)C4CC4)cc3)n2)n[nH]1 [Tozasertib] + Cc1ccc(NC(=O)c2cccc(N(C)C)c2)cc1NC(=O)c1ccc(O)cc1 [ZM336372] (first compound 0.03 µM, partner dose 10 µM)",cell count,G361,75%
same,cell count,IPC-298,91%
same,cell count,IST-MEL1,83.8%
same,cell count,LB2518-MEL,74.3%
same,cell count,LOXIMVI,80.3%
same,cell count,MEL-HO,82%
same,cell count,MZ2-MEL,79%
same,cell count,MeWo,86.1%
same,cell count,RPMI7951,48.8%
same,cell count,RVH-421,104%
same,cell count,SkMel28,56.3%
same,cell count,SkMel2,75.2%
same,cell count,SkMel30,88.1%
same,cell count,SkMel5,55.8%
same,cell count,UACC257,74.4%
same,cell count,UACC62,75.2%
same,cell count,WM115,53.3%
same,cell count,WM1716,81.7%
same,cell count,WM1745,35.4%
same,cell count,WM3526,82.2%
"CC[C@]1(O)C[C@H]2CN(CCc3c([nH]c4ccccc34)[C@@](C(=O)OC)(c3cc4c(cc3OC)N(C=O)[C@H]3[C@@](O)(C(=O)OC)[C@H](OC(C)=O)[C@]5(CC)C=CCN6CC[C@]43[C@@H]65)C2)C1 [vincristine] + NC1(c2ccc(-c3nc4ccn5c(=O)[nH]nc5c4cc3-c3ccccc3)cc2)CCC1 [MK2206] (first compound 0.0005 µM, partner dose 2 µM)",cell count,G361,98%
same,cell count,IPC-298,112%
same,cell count,IST-MEL1,69.3%
same,cell count,LB2518-MEL,89.7%
same,cell count,LOXIMVI,61.3%
same,cell count,MEL-HO,68.1%
same,cell count,MZ2-MEL,113%
same,cell count,MeWo,25.1%
same,cell count,RPMI7951,38.5%
same,cell count,RVH-421,48.5%
same,cell count,SkMel28,50.6%
same,cell count,SkMel2,71.4%
same,cell count,SkMel30,38.3%
same,cell count,SkMel5,29.6%
same,cell count,UACC257,49.1%
same,cell count,UACC62,57.7%
same,cell count,WM115,23.7%
same,cell count,WM1716,38.3%
same,cell count,WM1745,70.2%
same,cell count,WM3526,40.4%
"CC[C@]1(O)C[C@H]2CN(CCc3c([nH]c4ccccc34)[C@@](C(=O)OC)(c3cc4c(cc3OC)N(C=O)[C@H]3[C@@](O)(C(=O)OC)[C@H](OC(C)=O)[C@]5(CC)C=CCN6CC[C@]43[C@@H]65)C2)C1 [vincristine] + C[C@@H]1CCN(C(=O)CC#N)C[C@@H]1N(C)c1ncnc2[nH]ccc12 [CP690550] (first compound 0.0005 µM, partner dose 5 µM)",cell count,G361,96.8%
same,cell count,IPC-298,108%
same,cell count,IST-MEL1,80.8%
same,cell count,LB2518-MEL,87.4%
same,cell count,LOXIMVI,59.9%
same,cell count,MEL-HO,96.3%
same,cell count,MZ2-MEL,81.1%
same,cell count,MeWo,46.7%
same,cell count,RPMI7951,52%
same,cell count,RVH-421,60.2%
same,cell count,SkMel28,60.3%
same,cell count,SkMel2,69%
same,cell count,SkMel30,51%
same,cell count,SkMel5,44%
same,cell count,UACC257,86.2%
same,cell count,UACC62,70.5%
same,cell count,WM115,46.8%
same,cell count,WM1716,36.2%
same,cell count,WM1745,101%
same,cell count,WM3526,51.7%
"Cc1cc(Nc2cc(N3CCN(C)CC3)nc(Sc3ccc(NC(=O)C4CC4)cc3)n2)n[nH]1 [Tozasertib] + Nc1cccc2c1CN(C1CCC(=O)NC1=O)C2=O [lenalidomide] (first compound 0.03 µM, partner dose 5 µM)",cell count,G361,78.2%
same,cell count,IPC-298,86.6%
same,cell count,IST-MEL1,82.8%
same,cell count,LB2518-MEL,82.4%
same,cell count,LOXIMVI,88.7%
same,cell count,MEL-HO,87.5%
same,cell count,MZ2-MEL,73%
same,cell count,MeWo,86.4%
same,cell count,RPMI7951,92.2%
same,cell count,RVH-421,77.3%
same,cell count,SkMel28,71%
same,cell count,SkMel2,85.6%
same,cell count,SkMel30,86.6%
same,cell count,SkMel5,67.9%
same,cell count,UACC257,88.9%
same,cell count,UACC62,54.2%
same,cell count,WM115,66.1%
same,cell count,WM1716,74.6%
same,cell count,WM1745,59.9%
same,cell count,WM3526,87.5%
"Cc1cc(Nc2cc(N3CCN(C)CC3)nc(Sc3ccc(NC(=O)C4CC4)cc3)n2)n[nH]1 [Tozasertib] + O=C(/C=C/c1cccnc1)NCCCCC1CCN(C(=O)c2ccccc2)CC1 [FK866] (first compound 0.03 µM, partner dose 0.05 µM)",cell count,G361,5.14%
same,cell count,IPC-298,34.4%
same,cell count,IST-MEL1,65.7%
same,cell count,LB2518-MEL,57.6%
same,cell count,LOXIMVI,102%
same,cell count,MEL-HO,42.2%
same,cell count,MZ2-MEL,41.1%
same,cell count,MeWo,81.7%
same,cell count,RPMI7951,64.6%
same,cell count,RVH-421,34%
same,cell count,SkMel28,50.2%
same,cell count,SkMel2,10.6%
same,cell count,SkMel30,88.2%
same,cell count,SkMel5,85.4%
same,cell count,UACC257,97.2%
same,cell count,UACC62,53.5%
same,cell count,WM115,72%
same,cell count,WM1716,64.9%
same,cell count,WM1745,52.4%
same,cell count,WM3526,88.2%
"Cc1cc(Nc2cc(N3CCN(C)CC3)nc(Sc3ccc(NC(=O)C4CC4)cc3)n2)n[nH]1 [Tozasertib] + CN1CCN(c2ccc3nc(-c4c(N)c5c(F)cccc5[nH]c4=O)[nH]c3c2)CC1 [Dovitinib] (first compound 0.03 µM, partner dose 0.5 µM)",cell count,G361,66.2%
same,cell count,IPC-298,62.7%
same,cell count,IST-MEL1,66.5%
same,cell count,LB2518-MEL,59.4%
same,cell count,LOXIMVI,90.4%
same,cell count,MEL-HO,64.4%
same,cell count,MZ2-MEL,42.3%
same,cell count,MeWo,41.1%
same,cell count,RPMI7951,71.2%
same,cell count,RVH-421,80.5%
same,cell count,SkMel28,33.4%
same,cell count,SkMel2,54.3%
same,cell count,SkMel30,92.8%
same,cell count,SkMel5,59.8%
same,cell count,UACC257,68.6%
same,cell count,UACC62,76.1%
same,cell count,WM115,56.3%
same,cell count,WM1716,73.6%
same,cell count,WM1745,70.5%
same,cell count,WM3526,77%
"Cc1cc(Nc2cc(N3CCN(C)CC3)nc(Sc3ccc(NC(=O)C4CC4)cc3)n2)n[nH]1 [Tozasertib] + O=C(Nc1cc(C(F)(F)F)cc(C(F)(F)F)c1)c1cc(Cl)ccc1O [IMD0354] (first compound 0.03 µM, partner dose 0.08 µM)",cell count,G361,93%
same,cell count,IPC-298,83.2%
same,cell count,IST-MEL1,92.2%
same,cell count,LB2518-MEL,70.8%
same,cell count,LOXIMVI,73.6%
same,cell count,MEL-HO,77.5%
same,cell count,MZ2-MEL,65.3%
same,cell count,MeWo,84%
same,cell count,RPMI7951,79%
same,cell count,RVH-421,64.3%
same,cell count,SkMel28,61.2%
same,cell count,SkMel2,74.2%
same,cell count,SkMel30,91.1%
same,cell count,SkMel5,72.2%
same,cell count,UACC257,84.7%
same,cell count,UACC62,91%
same,cell count,WM115,64.7%
same,cell count,WM1716,67.6%
same,cell count,WM1745,78.1%
same,cell count,WM3526,71.5%

# Reference: the supplement of paper PMC4604168 (melanoma cell lines)
